According to paper PMC4876825 (Biochemistry, 2016):

B1: BECN1 coiled-coil domain (CCD), […] (domain or fragment)
chain: not shown
B2: BECN1 FHD-CCD, […] (domain or fragment)
chain: not shown

Target: the molecule itself
Experiment: SEC-SAXS

| Protein | binding result | stoichiometry N |
| --- | --- | --- |
| B1 | binds |  |
| B2 |  | 2 |
